Source: US11999716B2, “WDR5 inhibitors and modulators” (priority 2018, dated 2024)
pKi: −log10 of the molar value.

Target: WDR5 (Homo sapiens, UniProt P61964)
Assay: biochemical
Format: binding
Settings: WDR5-His tag (Δ23, residues 24-334) 2 nM; 10mer-Thr-FAM probe 150 nM; Tb-anti-HIS 1 nM; 60 min, room temperature; read-out: Ki for Inhibition of WDR5 by TR-FRET assay

Structure (SMILES) | pKi
COc1ccnc([C@H](C)N2CCc3c(cc(Cn4ccnc4C)cc3-c3cnccc3C)C2=O)c1 [Example 196, (S)-2-(1-(4-Methoxypyridin-2-yl)ethyl)-7-((2-methyl-1H-imidazol-1-yl)methyl)-5-(4-methylpyridin-3-yl)-3,4-dihydroisoquinolin-1(2H)-one] | 9.57
Cc1ccnc([C@H](C2CC2)N2CCc3c(cc(Cn4ccnc4)cc3-c3ccc(F)cc3C)C2=O)c1 [Example 184, (S)-7-((1H-Imidazol-1-yl)methyl)-2-(cyclopropyl(4-methylpyridin-2-yl)methyl)-5-(4-fluoro-2-methylphenyl)-3,4-dihydroisoquinolin-1(2H)-one] | > 10.30
Cc1nccn1Cc1cc2c(c(-c3cn(C)nc3C(F)(F)F)c1)CCN(Cc1cn(C)c3ccccc13)C2=O [Example 189, 7-((2-Methyl-1H-imidazol-1-yl)methyl)-2-((1-methyl-1H-indol-3-yl)methyl)-5-(1-methyl-3-(trifluoromethyl)-1H-pyrazol-4-yl)-3,4-dihydroisoquinolin-1(2H)-one] | 9.66
Cc1nnc(CN2CCc3c(cc(Cn4ccnc4C)cc3-c3cn(C)nc3C(F)(F)F)C2=O)o1 [Example 188, 2-((5-Methyl-1,3,4-oxadiazol-2-yl)methyl)-7-((2-methyl-1H-imidazol-1-yl)methyl)-5-(1-methyl-3-(trifluoromethyl)-1H-pyrazol-4-yl)-3,4-dihydroisoquinolin-1(2H)-one] | 9.74
COc1ccnc([C@H](C)N2CCc3c(cc(Cn4ccnc4C)cc3-c3cccnc3C)C2=O)c1 [Example 202, (S)-2-(1-(4-Methoxypyridin-2-yl)ethyl)-7-((2-methyl-1H-imidazol-1-yl)methyl)-5-(2-methylpyridin-3-yl)-3,4-dihydroisoquinolin-1(2H)-one] | 10.28
Cc1cc(CN2CCc3c(cc(Cn4ccnc4C)cc3-c3cn(C)nc3C(F)(F)F)C2=O)on1 [Example 190, 7-((2-Methyl-1H-imidazol-1-yl)methyl)-5-(1-methyl-3-(trifluoromethyl)-1H-pyrazol-4-yl)-2-((3-methylisoxazol-5-yl)methyl)-3,4-dihydroisoquinolin-1(2H)-one] | 9.85
Cc1cncc([C@@H](C)N2CCc3c(cc(Cn4ccnc4C)cc3-c3cn(C)nc3C(F)(F)F)C2=O)c1 [Example 197, (R)-7-((2-Methyl-1H-imidazol-1-yl)methyl)-5-(1-methyl-3-(trifluoromethyl)-1H-pyrazol-4-yl)-2-(1-(5-methylpyridin-3-yl)ethyl)-3,4-dihydroisoquinolin-1(2H)-one] | 10.12
COc1ccnc([C@H](C2CC2)N2CCc3c(cc(Cn4ccnc4C)cc3-c3cn(C)nc3C)C2=O)c1 [Example 203, (S)-2-(Cyclopropyl(4-methoxypyridin-2-yl)methyl)-5-(1,3-dimethyl-1H-pyrazol-4-yl)-7-((2-methyl-1H-imidazol-1-yl)methyl)-3,4-dihydroisoquinolin-1(2H)-one] | > 10.30
CC[C@H](c1cncc(C)c1)N1CCc2c(cc(Cn3ccnc3C)cc2-c2cn(C)nc2C(F)(F)F)C1=O [Example 198, (R)-7-((2-Methyl-1H-imidazol-1-yl)methyl)-5-(1-methyl-3-(trifluoromethyl)-1H-pyrazol-4-yl)-2-(1-(5-methylpyridin-3-yl)propyl)-3,4-dihydroisoquinolin-1(2H)-one] | 10.25
Cc1cncc([C@H](C)N2CCc3c(cc(Cn4ccnc4C)cc3-c3cn(C)nc3C(F)(F)F)C2=O)c1 [Example 200, (S)-7-((2-Methyl-1H-imidazol-1-yl)methyl)-5-(1-methyl-3-(trifluoromethyl)-1H-pyrazol-4-yl)-2-(1-(5-methylpyridin-3-yl)ethyl)-3,4-dihydroisoquinolin-1(2H)-one] | > 10.30
COc1ccnc([C@H](C)N2CCc3c(cc(Cn4ccnc4C)cc3-c3cccnc3C(F)(F)F)C2=O)c1 [Example 192, (S)-2-(1-(4-Methoxypyridin-2-yl)ethyl)-7-((2-methyl-1H-imidazol-1-yl)methyl)-5-(2-(trifluoromethyl)pyridin-3-yl)-3,4-dihydroisoquinolin-1(2H)-one] | 10.02
Cc1cnc(CN2CCc3c(cc(Cn4ccnc4C)cc3-c3cn(C)nc3C(F)(F)F)C2=O)o1 [Example 194, 7-((2-Methyl-1H-imidazol-1-yl)methyl)-5-(1-methyl-3-(trifluoromethyl)-1H-pyrazol-4-yl)-2-((5-methyloxazol-2-yl)methyl)-3,4-dihydroisoquinolin-1(2H)-one] | 9.85
Cc1nccn1Cc1cc2c(c(-c3cn(C)nc3C(F)(F)F)c1)CCN(Cc1cn(C(C)C)c3ccccc13)C2=O [Example 193, 2-((1-Isopropyl-1H-indol-3-yl)methyl)-7-((2-methyl-1H-imidazol-1-yl)methyl)-5-(1-methyl-3-(trifluoromethyl)-1H-pyrazol-4-yl)-3,4-dihydroisoquinolin-1(2H)-one] | 9.52
CCn1cc(CN2CCc3c(cc(Cn4ccnc4C)cc3-c3cn(C)nc3C(F)(F)F)C2=O)c2ccccc21 [Example 187, 2-((1-Ethyl-1H-indol-3-yl)methyl)-7-((2-methyl-1H-imidazol-1-yl)methyl)-5-(1-methyl-3-(trifluoromethyl)-1H-pyrazol-4-yl)-3,4-dihydroisoquinolin-1(2H)-one] | 9.85
CCc1ccnc([C@H](C)N2CCc3c(cc(Cn4ccnc4)cc3-c3cn(C)nc3C(F)(F)F)C2=O)c1 [Example 191, (S)-7-((1H-Imidazol-1-yl)methyl)-2-(1-(4-ethylpyridin-2-yl)ethyl)-5-(1-methyl-3-(trifluoromethyl)-1H-pyrazol-4-yl)-3,4-dihydroisoquinolin-1(2H)-one] | 10.01
CC[C@@H](c1cncc(C)c1)N1CCc2c(cc(Cn3ccnc3C)cc2-c2cn(C)nc2C(F)(F)F)C1=O [Example 199, (S)-7-((2-Methyl-1H-imidazol-1-yl)methyl)-5-(1-methyl-3-(trifluoromethyl)-1H-pyrazol-4-yl)-2-(1-(5-methylpyridin-3-yl)propyl)-3,4-dihydroisoquinolin-1(2H)-one] | > 10.30
Cc1cccnc1CN1CCc2c(cc(Cn3ccnc3C)cc2-c2cn(C)nc2C(F)(F)F)C1=O [Example 181, 7-((2-Methyl-1H-imidazol-1-yl)methyl)-5-(1-methyl-3-(trifluoromethyl)-1H-pyrazol-4-yl)-2-((3-methylpyridin-2-yl)methyl)-3,4-dihydroisoquinolin-1(2H)-one] | 9.12
Cc1cnc(CN2CCc3c(cc(Cn4ccnc4C)cc3-c3cn(C)nc3C(F)(F)F)C2=O)s1 [Example 195, 7-((2-Methyl-1H-imidazol-1-yl)methyl)-5-(1-methyl-3-(trifluoromethyl)-1H-pyrazol-4-yl)-2-((5-methylthiazol-2-yl)methyl)-3,4-dihydroisoquinolin-1(2H)-one] | 9.82
